Measurements published in the supplement of paper PMC11417369.
This is one part of the list.

tested on: PF3D7_0420300 AP2 domain 1 (GST-tagged); experiment: gcPBM binding intensity (ln(normalized median fluorescence intensity)); higher = stronger DNA binding
How it was run: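 GST-tagged P. falciparum DNA-binding domains, expressed in E. coli (about 25 μg on average), were applied for 1 h to an Agilent 4 × 180k array of primer-extended double-stranded 36-bp intergenic genomic probes plus negative controls. The binding buffer was 1× PBS with 1% milk, 0.2 mg/ml BSA, 0.5% salmon testes DNA and 0.03% Triton X-100. Bound protein was detected with Alexa488 anti-GST antibody and scanned at 488 nm. Binding intensity is the highest Masliner-normalised natural-log median intensity across replicate spots of either probe orientation.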

| Sequence | gcPBM binding intensity (ln) |
| --- | --- |
| GGACATTTTTATAAGGTGCACGGTTTTGATATTACT [GTGCAC_site9892] | 9.46 |
| AACCACATACATATAACACACATATACAATATATAT [CACACA_site8607] | 9.65 |
| AAGGGTTGCCTGTGTAGTACATATATATATATATAT [XGTACX_site8555] | 9.33 |
| TGACTATGTATATTTAGTACATAAAATCAATAATAT [XGTACX_site4082] | 9.16 |
| AAATTATATTATTGAACACACGTTTGGTAATGTTTT [CACACA_site5469] | 9.33 |
| TCATTCATAAAAATAACACACAAAAAAAAAAAAAAA [CACACA_site1800] | 9.27 |
| GTAAACAAAATATTTTGTACATATTTTATATTATTT [XGTACX_site7837] | 9.26 |
| AAATATAAGAAAAAGGTGCTTTTTTTTTTTTTTTTT [GTGCAC_site9700] | 9.1 |
| AGGGAAAAAAAAAAAGTGCATTTGTATTAAATGAAT | 9.14 |
| GGCATAAATATATGCACACACAAAAAAAAAAAAAAA [CACACA_site59] | 9.34 |
| ATATTGTTTTATATAGAACACACATAAAAATATATA [CACACA_site8314] | 9.39 |
| TTTTTTTTTTTAAAAAGTACACAATTAATTAATATA [XGTACX_site8494] | 8.75 |
| TATAAACATTATAAATGTACAAATATATATATATAT [XGTACX_site3218] | 9.28 |
| TTATTGAAAAAAGAACAAAAAAAAAAAGAAAAATTA [XGTACX_negctrl_site438] | 9.09 |
| AAAATAAGAAATAGATGTACTTATAAATAAATACAA [XGTACX_site4441] | 9.2 |
| GAAAGAATAAAATTTACACACATATATATATACATA [CACACA_site2250] | 9.51 |
| ATATATATATATATATGTACTTATTTGAATACTAAA [XGTACX_site2330] | 9.01 |
| TCATTATATCATGGTAGTACTCATTAATAATACGTA [XGTACX_site8701] | 9 |
| GTTAATAAAAATATATGTACATAATTATTATGAAAA [XGTACX_site3030] | 9.12 |
| AATATTATTTAGGAGCGTACGTTTTATTTACATATT [XGTACX_site5188] | 9.4 |
| TATATATTTTTTAAACCACACACAATATAGAGTATA [CACACA_site8106] | 9.62 |
| ATATAGGTAAAAAGTATACACACGTTGACACATTCT [CACACA_site1199] | 9.59 |
| ATAATATAATTTTGCAGTACCCAAAAAACAAAATAA [XGTACX_site4827] | 9.38 |

| Sequence | gcPBM binding intensity (ln) |
| --- | --- |
| AATATGATATATATATGTACATATATATAATATAAT [XGTACX_site3072] | 9.28 |
| AAAGTATAATAATACACACACTTTAAAAGTTAAATG [CACACA_site7550] | 9.58 |
| AAAAGATGCGCATACACACAGATGAATAACAAAAAA [CACACA_site6865] | 9.74 |
| GCACATTTTTTTATCACACATATAATTACAATATAA [CACACA_site5585] | 9.51 |
| TTTCGGTTTTTTTTTATTTTTTTTTTTTTATTATTT [CACACA_negctrl_site335] | 9.75 |
| TACGTATGCCTGTGATGTACATATATATATACATAC [XGTACX_site4728] | 9.36 |
| ATATAAATCAAAAACGCACACATAAATATTTATATA [CACACA_site2442] | 9.66 |
| ATAAAAGAATAAATAAAACACATATATATATATATA [XGTACX_negctrl_site31] | 9.11 |
| TTTTTTTTTTTTTTGGTGCACATAGAAATTCTAAAA [GTGCAC_site9809] | 8.78 |
| AAAAGAAAATAAGAAACACACAAAAATATATAAAAA [CACACA_site3697] | 9.74 |
| TTCTTTGCTTTTCAAACACACAAAAGTTATTATATT [CACACA_site521] | 9.41 |
| TTATAAATGTATTTATGTACATATAAATATATATAA [XGTACX_site2970] | 8.94 |
| TTTTAAATATATGTGCTATTATATTAAGAGATGTAA [GTGCAC_negctrl_site560] | 9.03 |
| ATCTATAAATTTCCACGTACATATATATATATATAT [XGTACX_site4502] | 9.32 |
| CCTCTTTTTATTCTCACACACGTTTATATATAAAGT [CACACA_site4992] | 9.57 |
| TTTTTTATTTTTGCGTGTACATAATAATGAATCTTC [XGTACX_site8077] | 9.11 |
| GAAATTTCCCATATTACACACATACTATGATATATA [CACACA_site5987] | 9.66 |
| CCTATTTATAAATACACACACATATATAAATAAATA [CACACA_site5629] | 9.81 |
| AAAAAACTATTATGTGCATGCACAAGTCAGGTAAAT [TGCATGCA_site791] | 9.54 |
| AAAAAGAAATCCAATACACACCTTCAAAATGGGTAT [CACACA_site4978] | 9.53 |
| TATTTATAGATATATACACACATATTTATATTTATA [CACACA_site6441] | 9.39 |
| CATTAAATATATAAATGTACAAATATATTTTTCAAA [XGTACX_site4429] | 8.98 |
